This note sets out measurements from PMC6919601, “Identification of Plasmodium dipeptidyl aminopeptidase allosteric inhibitors by high throughput screening” (PLoS ONE, 2019).

Out of some 110,000 compounds screened, about 230 (0.21%) showed an effect of 50% or more. This is one part of the list.
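Note: 30 min substrate incubation versus DMSO and 10 µM JCP410 controls.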

Sequence of DPAP1 (Q8IIJ9 whole entry, looked up): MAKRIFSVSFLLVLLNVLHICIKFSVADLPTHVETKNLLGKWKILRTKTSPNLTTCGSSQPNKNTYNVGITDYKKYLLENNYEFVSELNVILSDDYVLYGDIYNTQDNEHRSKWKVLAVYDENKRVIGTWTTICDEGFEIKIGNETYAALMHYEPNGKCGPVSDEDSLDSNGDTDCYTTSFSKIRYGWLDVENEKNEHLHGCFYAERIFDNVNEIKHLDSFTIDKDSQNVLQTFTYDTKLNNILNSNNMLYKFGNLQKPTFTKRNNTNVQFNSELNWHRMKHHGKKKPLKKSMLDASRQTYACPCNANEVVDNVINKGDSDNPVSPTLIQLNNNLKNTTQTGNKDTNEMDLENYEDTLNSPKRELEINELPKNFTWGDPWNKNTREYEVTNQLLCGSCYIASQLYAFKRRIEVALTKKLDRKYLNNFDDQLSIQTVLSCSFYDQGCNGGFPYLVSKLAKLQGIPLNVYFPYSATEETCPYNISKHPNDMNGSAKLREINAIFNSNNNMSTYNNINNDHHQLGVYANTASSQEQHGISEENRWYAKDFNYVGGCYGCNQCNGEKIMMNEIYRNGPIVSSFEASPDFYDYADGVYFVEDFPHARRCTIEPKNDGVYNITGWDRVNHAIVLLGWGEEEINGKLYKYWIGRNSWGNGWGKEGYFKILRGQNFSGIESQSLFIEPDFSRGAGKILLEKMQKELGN

This assay has as its target DPAP1 (Plasmodium falciparum, UniProt Q8IIJ9). The assay is described as follows: primary screen, percent inhibition; read by cleavage of a fluorogenic dipeptide substrate; higher = more effect of the substance. Set-up: species or system P. falciparum D10 trophozoite lysates; single well.
As to `CC(=O)c1cccc(NS(=O)(=O)c2cccc(Cl)c2)c1`, the “% Inhibition @ 10 uM” value is reported as 0.889%. In the case of `COc1ccc(C2c3c(-c4c(C)cc(C)cc4O)n[nH]c3C(=O)N2CCO)cc1` (centres unmarked) it was 0.00706%; in that of `Cc1c2c(ccc3ccccc32)s[n+]1CCCS(=O)(=O)O`, -5.4%; in that of `C=CCOc1ccccc1/C=C(\C#N)c1nc2ccccc2[nH]1`, 2.36%.

On to `CC(C)(C)N1C(=O)C2C3C=CC(C3)C2C1=O` (centres unmarked), for which the “% Inhibition @ 10 uM” value is listed as 1.34%. For the compound `CCOc1cc(CCn2cnc3c4cc(C)ccc4nc-3c2O)ccc1OC`, the “% Inhibition @ 10 uM” value is listed as 3.24%. In the case of `Cc1ccc2c(Cl)c(C(=O)Nc3cc(C)on3)sc2c1` it was -1.08%; in that of `O=C(/C=C(\c1ccccc1)C(F)(F)C(F)F)c1cccs1`, -0.597%; in that of `Cc1c(C(=O)N2CCC(C(N)=O)CC2)oc2c1-c1nn(Cc3cccc(Cl)c3)cc1CC2`, -0.0401%.

Regarding `CCCOC(=O)C1=C(C)NC(=O)NC1c1ccc(Cl)cc1` (centres unmarked), the “% Inhibition @ 10 uM” value amounted to 2.92%. Next, `O=C1c2ccccc2C(=O)N1c1ncc(Cc2ccc(Cl)cc2)s1`: 9.4%; `Cc1ccc2oc(=O)c3cnn(CC(=O)N(C)Cc4ccccc4)c3c2c1`: -3.45%. In the case of `Nc1cccc(-c2nc3ccccc3s2)c1` it was -2.03%; in that of `Nc1c(C(=O)NCCc2ccc(Cl)cc2)sc2ccc(S(=O)(=O)N3CCCCC3)cc12`, -1.34%. Next, `CCOc1ccc(NC2CC(=O)N(c3ccc(OC)cc3)C2=O)cc1` (centres unmarked): 2.51%; `COc1ccc(N2C(=O)C3C4C=CC(C4=C4CCCC4)C3C2=O)cc1` (centres unmarked): 0.317%. As for `Cc1ccc(C2=CC(c3c(F)cccc3Cl)n3nnnc3N2)cc1C` (centres unmarked), the “% Inhibition @ 10 uM” value is given as 0.00995%. Next, `CCOC(=O)C1=C(C)N=c2s/c(=C/c3cc(C)n(C)c3C)c(=O)n2C1c1ccccc1` (centres unmarked): -7.02%; `CC1CCCCC1Nc1cnn(C23CC4CC(CC(C4)C2)C3)c(=O)c1Cl` (centres unmarked): 0.0579%. As to `CC1CCCC(NC(=O)Nc2cccs2)C1C` (centres unmarked), the “% Inhibition @ 10 uM” value is reported as -1.6%. In the case of `COc1ccc(S(=O)(=O)Nc2cc3oc4ccccc4c3cc2OC)cc1` it was -1.63%; in that of `C=C(C)c1cccc(C(C)(C)NC(=O)N[C@@H](CC(C)C)C(=O)NCC#N)c1`, -6.68%. In the case of `O=C(CN1CCN(CCO)CC1)Nc1ccc(Cl)cc1C(=O)c1ccccc1` it was -1.52%. Next, `O=C1NN(c2ccccc2)C(=O)/C1=C\Nc1ccccc1`: -4.16%. For `COc1ccc(CN2CCN(Cc3cccc(OC)c3OC)CC2)cc1OC`, the “% Inhibition @ 10 uM” value is -2.99%. In the case of `O=C(NCc1ccc2c(c1)OCO2)c1ccc2nc(-c3ccco3)c(-c3ccco3)nc2c1` it was 11.2%. Take `O=C(Nc1sc2c(c1C(=O)NCCO)CCCC2)c1ccco1`: the “% Inhibition @ 10 uM” value was -2.22%. In the case of `O=C1c2ccccc2C(=O)N1c1ccc(S(=O)(=O)N2CCOCC2)c2ccccc12` it was -5.49%; in that of `COc1ccc(-c2nc3sc(-c4ccc(OC)cc4)nc3s2)cc1`, 44.4%; in that of `OCCN(Cc1ccccc1)Cc1cccc(Cl)c1Cl`, 4.28%. In the case of `O=C(CN(c1ccccc1)S(=O)(=O)c1ccccc1)Nc1ccc(F)cc1` it was 3.89%; in that of `CN1C/C(=C/c2cccnc2)C(=O)/C(=C/c2cccnc2)C1`, -5.51%; in that of `CCOC(=O)c1c2c(n(C)c1C)C=C(Br)C(=O)C2=O`, 2.17%. In the case of `CCN(CC)CCCNC(=O)CN1C(=O)CSc2nc(C)cc(C)c21` it was 2.65%. For `CCC(C)NC(=O)CN1N=C(c2ccc(Cl)cc2)CCC1=O` (centres unmarked), the “% Inhibition @ 10 uM” value is reported as -3.22%. Next, `Cn1c(=O)c2c(nc(Cl)n2CCc2ccccc2)n(C)c1=O`: -1.92%. Next, `COc1cccc(N(CC(=O)Nc2cc(C)ccc2C)S(C)(=O)=O)c1`: -9.04%; `COc1ccc(NC(=O)CN(Cc2ccccc2)S(C)(=O)=O)cc1Cl`: 2.49%; `CCc1ccc(CN2CCN(Cc3cc(Br)ccc3O)CC2)cc1`: -3.41%. In the case of `COc1ccc(N(CC(=O)N(C)C)S(=O)(=O)c2ccccc2)cc1Cl` it was 3.66%; in that of `Cc1ccc(-c2nc(C3CCCCC3)no2)cc1`, 10.9%; in that of `Cc1nn(C(=O)CCCC(=O)NC2CCCCC2)c2ccccc12`, -4.94%.

Regarding `O=C(NCC1CCCO1)c1cnn2c(C(F)(F)F)cc(-c3ccc(Br)cc3)nc12` (centres unmarked), the “% Inhibition @ 10 uM” value is 0.661%.

In the case of `COc1cc(CN2CCN(C(=O)c3cccc(Cl)c3)CC2)cc(OC)c1OC`, the “% Inhibition @ 10 uM” value was determined as 6.1%. Next, `Cc1cccc2c1-c1sc(C(=O)NCCCN3CCCC(C)C3)cc1CO2` (centres unmarked): -6.68%; `O=C(OCc1ccccc1)c1sc2ccccc2c1Cl`: -4.15%; `c1ccc(CN2CCN(C3CN4CCC3CC4)CC2)cc1` (centres unmarked): 1.57%. Next, `CCCC(=O)NCc1nc2ccccc2n1CC(=O)c1ccccc1`: 3.34%; `Cc1c(Cl)cccc1-c1ccc(C(=O)NCc2ccco2)o1`: 6.22%.

Consider `CCCOC(=O)c1ccc(-c2ccc(/C=C3/C(=O)NC(=O)C(C#N)=C3C)o2)cc1`, for which the “% Inhibition @ 10 uM” value is recorded as -6.86%. Consider `COc1ccc(-c2noc(CC(=O)N3CCN(C(=O)c4ccco4)CC3)n2)cc1`, for which the “% Inhibition @ 10 uM” value is recorded as -0.256%.

For `Cc1nnc2c(SC3CCCCC3)nc3ccccc3n12`, the “% Inhibition @ 10 uM” value came out at 16%. In the case of `COc1ccc(CCn2cc3c(c2-c2ccccc2Cl)c(=O)n(C)c(=O)n3C)cc1OC`, the “% Inhibition @ 10 uM” value is recorded as -4.95%. In the case of `Cc1ccc2nc(-c3ccc(N4C(=O)CC(N5CCCC(CO)C5)C4=O)cc3)sc2c1` (centres unmarked) it was 7.54%; in that of `Cc1cc(NC(=O)C23CC4CC(CC(C4)C2)C3)nc2c1c(=O)oc1ccccc12`, -6.29%; in that of `OCCNc1ncc(-c2ccccc2)cn1`, -0.636%.

In the case of `CSc1nc(=S)n(-c2ccccc2)c(C)c1C(C)=O`, the “% Inhibition @ 10 uM” value is -4.01%. In the case of `CC(=O)Nc1sc2c(c1C(c1cccc(Br)c1)N1CCOCC1)CCCC2` (centres unmarked) it was -0.123%; in that of `CCc1ccc(-c2cn3c(n2)sc2cc(C(=O)NCc4ccco4)ccc23)cc1`, 0.807%. In the case of `O=C(CCN(Cc1ccccc1)Cc1ccccc1)c1ccccc1` it was 0.878%; in that of `CCc1ccc(/C(O)=C/C=N/c2cccc(O)c2)cc1`, 2.18%. Next, `O=C(COc1ccc(Cl)cc1)NC1C2CC3CC(C2)CC1C3` (centres unmarked): -0.582%; `COC(=O)C1=CN(Cc2ccc(F)cc2)C=C(C(=O)OC)C1c1ccc(C)s1`: -1.48%. For `CCO/C=C1\C(=O)N(c2ccc(C)cc2)C(=O)c2ccccc21`, the “% Inhibition @ 10 uM” value is reported as 5.24%. Next, `Cc1ccc(OCCCOc2ccc(/C=C3\C(=N)N4N=C(S(C)(=O)=O)SC4=NC3=O)cc2)cc1`: -1.54%. Take `COc1ccc2occ(CC(=O)Nc3nnc(SC)s3)c2c1`: the “% Inhibition @ 10 uM” value stood at 0.19%.

For `Nc1ccc(C(=O)NC2CCCCC2)cc1`, the “% Inhibition @ 10 uM” value is listed as 3.56%. Next, `COc1cc(CN2CCN(C)CC2)ccc1O`: -2.56%; `O=C1CC(c2ccccc2)c2ccc(O)cc2O1` (centres unmarked): -1.97%; `COc1nc(Cl)cc(C)c1C(=O)NCc1ccc(Cl)cc1`: -3.72%.

`CCOC(=O)c1c(NC(=O)Cc2coc3c(C)c(C)ccc23)sc(C)c1C`: the “% Inhibition @ 10 uM” value is reported as -0.671%.

As for `Cc1ccnc(NC(=O)CN(C)S(=O)(=O)c2cccc3nsnc23)c1`, the “% Inhibition @ 10 uM” value is -3.46%. Turning to `Clc1cccc(N2CCN(Cc3cccs3)CC2)c1`, the “% Inhibition @ 10 uM” value was -0.192%.

Consider `CCN(CC)CCCCOc1ccc(Br)cc1`, for which the “% Inhibition @ 10 uM” value is -5.84%. Next, `Oc1ccc(Br)cc1CN1CCN(Cc2ccc3c(c2)OCO3)CC1`: -5.26%; `COc1ccccc1Oc1ccc(S(=O)(=O)NCc2ccccn2)cc1`: -4.39%.

For `O=C(O)CCCN1C(=O)C(c2ccccc2)Oc2cccnc21` (centres unmarked), the “% Inhibition @ 10 uM” value is given as -1.97%. Next, `COCc1[nH]nc2c1C(c1ccc(OCCN3CCOCC3)c(OC)c1)C(C#N)=C(N)O2` (centres unmarked): 0.674%. Consider `Nc1nc2ccccc2n1C(=O)c1ccco1`, for which the “% Inhibition @ 10 uM” value is on record as 0.778%. Regarding `O=C(NCc1ccc2c(c1)OCO2)C1CCN(S(=O)(=O)c2cccs2)CC1`, the “% Inhibition @ 10 uM” value was found to be 5.1%. In the case of `COc1cccc(-c2nn(C)c3sc(C(=O)NCc4ccco4)cc23)c1` it was 2.9%; in that of `CCCOc1ccc(Cc2c(Cl)nc(SC)nc2NC)cc1`, -2.87%; in that of `O=C(Nc1ccc(Cc2ccc(NC(=O)C3CC3)cc2)cc1)C1CC1`, 0.316%. Next, `COC(=O)c1sc(S(=O)(=O)N2CCCCC2)c(C(=O)OC)c1C`: 1.52%; `CCOC(=O)C1=C(C)OC(N)=C(C#N)C1c1cc(OCC)ccc1OCC` (centres unmarked): -6.25%.

`CCOc1ccc(-n2c(C)c(C(C)=O)c3cc(OC)ccc32)cc1`: the “% Inhibition @ 10 uM” value is on record as -4.03%.

For `Cc1cccc(CNC(=O)CCc2ccc(-n3cnc4cccnc43)cc2)c1`, the “% Inhibition @ 10 uM” value is given as -7.88%. In the case of `CC(NC(=O)C1CCC(CNS(=O)(=O)c2ccccc2)CC1)c1ccccc1` (centres unmarked) it was 5.47%; in that of `Cc1ccc(NS(=O)(=O)c2ccc(N)cc2)cc1C`, -3.97%; in that of `COc1cc(OC)cc(C(=O)N2CCN(Cc3ccc(C)cc3)CC2)c1`, -4.59%. For `COc1ccc(C2CC(=O)CC(=O)C2)cc1`, the “% Inhibition @ 10 uM” value is -8.7%. In the case of `Cc1cc(-c2ccc(C)c(S(=O)(=O)N(Cc3ccc(F)cc3)Cc3cccnc3)c2)on1` it was 4.87%. Next, `CC(=O)c1cccc(NC(=O)C23CC4CC(C2)CC(n2cncn2)(C4)C3)c1`: -10.6%. For `N#C/C(=C/c1ccc2c(c1)OCO2)c1ccc(Cl)cc1`, the “% Inhibition @ 10 uM” value worked out at 2.05%.

With `O=C(O)c1cccc([N+](=O)[O-])c1C(=O)Nc1cccc(O)c1`, the “% Inhibition @ 10 uM” value is given as -6.83%. Consider `CC(C)Cn1nnc2sc3c(c2c1=O)CCC(C(C)(C)C)C3` (centres unmarked), for which the “% Inhibition @ 10 uM” value was determined as 0.758%.

With `COc1nnc(-c2ccc(C)c(S(=O)(=O)NCc3ccccc3)c2)c2ccccc12`, the “% Inhibition @ 10 uM” value is on record as 5.75%. For the compound `C=CCN1C(=O)N/C(=C/c2cc(Cl)c(OC)c(Cl)c2)C1=O`, the “% Inhibition @ 10 uM” value is on record as -4.14%.

Turning to `O=[N+]([O-])c1ccccc1CNC1CCCCCC1`, the “% Inhibition @ 10 uM” value is -3.32%.

Regarding `O=S(=O)(NCCSc1ccc(Cl)cc1)c1ccc2c(c1)OCCO2`, the “% Inhibition @ 10 uM” value is reported as -3.92%. In the case of `CC1CCCC(NCCCn2ccnc2)C1` (centres unmarked) it was 4.75%.
